Data as given in the supplement of paper PMC10126150.
Values marked as one replicate rest on one cluster of the flow cell; about a third of the high ones do not repeat.
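Further: ATP exposure 15 min at 22 °C before imaging.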

Each sequence was assayed on ATP (assay: switch fluorescence ratio, 500 uM ATP over buffer (Cy3 cluster intensity, sum of 5 cycles each) (fold (ratio)); higher = stronger signal-on switching upon ATP binding; sequences stand for … in TCGTCGGCAGCGTCAGATGTGTATAAGAGACAGTTTTTTTTTTTTTTTTTTTTTTTTT…TC). Details: aptamer strand: ATP DNA aptamer (quencher-CACCTGGGGGAGTATTGCGGAGGAAGG + anchor), 100 nM annealed; ATP concentration: 500 uM; one replicate.
Procedure, shortened: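 The quencher-labelled ATP aptamer, at 100 nM, was annealed to Cy3-labelled switching-strand clusters on a modified Illumina MiSeq flow-cell. The clusters were imaged in selection buffer, then after 15 min with 500 uM ATP at 22 °C, and this buffer/ATP cycle ran five times with NaOH stripping and re-annealing between runs. Per-cluster fluorescence ratios, summed target-cycle over summed buffer-cycle Cy3 intensity, were averaged per switch-domain sequence. Clusters outside 100-1000 RFU were excluded.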
In the case of ATTGGTAGGT, the switch fluorescence ratio is reported as 0.998.
Sequence ATTGGTCTAG has a switch fluorescence ratio of 1.05.
ATTGTACTG was tested, and the switch fluorescence ratio was 1.12.
Work on ATTGTCGGCC yielded a switch fluorescence ratio of 0.982.
With ATTGTCGGTG the switch fluorescence ratio was 1.06.
For ATTGTCGTCT, the switch fluorescence ratio was 1.14.
ATTGTGTAAC showed a switch fluorescence ratio of 1.03.
ATTGTTAAT was tested, and the switch fluorescence ratio was 1.03.
In the case of ATTGTTCGGG, the switch fluorescence ratio is reported as 1.
In the case of ATTGTTTACC, the switch fluorescence ratio is reported as 0.968.
With ATTTAAAGTT the switch fluorescence ratio was 1.02.
With ATTTACGCG the switch fluorescence ratio was 0.987.
ATTTACGGCT was tested, and the switch fluorescence ratio was 0.95.
ATTTAGAGGA gave a switch fluorescence ratio of 1.04.
ATTTAGCATA was tested, and the switch fluorescence ratio was 1.36.
For ATTTAGTGAA, the switch fluorescence ratio was 0.992.
For ATTTATCTGT, the switch fluorescence ratio was 1.02.
Sequence ATTTATGGC has a switch fluorescence ratio of 1.04.
ATTTATTACT showed a switch fluorescence ratio of 0.997.
In the case of ATTTATTTTG, the switch fluorescence ratio is reported as 1.08.
With ATTTCAACTT the switch fluorescence ratio was 0.997.
ATTTCAGA gave a switch fluorescence ratio of 0.992.
For ATTTCCGTGC, the switch fluorescence ratio was 1.12.
For ATTTCGGGCT, the switch fluorescence ratio was 1.02.
ATTTCGGGGG was tested, and the switch fluorescence ratio was 0.987.
Sequence ATTTCGTCGG has a switch fluorescence ratio of 0.981.
For ATTTCTCAT, the switch fluorescence ratio was 0.999.
In the case of ATTTCTGAGA, the switch fluorescence ratio is reported as 1.05.
For ATTTCTTCTC, the switch fluorescence ratio was 1.05.
For ATTTCTTTGT, the switch fluorescence ratio was 0.992.
With ATTTGACTAG the switch fluorescence ratio was 0.983.
With ATTTGATGGC the switch fluorescence ratio was 0.995.
With ATTTGCAGTA the switch fluorescence ratio was 1.04.
Sequence ATTTGCGCTC has a switch fluorescence ratio of 0.975.
In the case of ATTTGCTTGG, the switch fluorescence ratio is reported as 1.
For ATTTGGCGTC, the switch fluorescence ratio was 1.
ATTTGGCTTG showed a switch fluorescence ratio of 1.01.
ATTTGGTCAA was tested, and the switch fluorescence ratio was 1.02.
ATTTGTAGGG showed a switch fluorescence ratio of 0.986.
For ATTTGTGAGT, the switch fluorescence ratio was 0.957.
ATTTGTGCGC gave a switch fluorescence ratio of 0.963.
With ATTTGTTCCC the switch fluorescence ratio was 0.985.
Work on ATTTGTTTT yielded a switch fluorescence ratio of 1.07.
Work on ATTTTAGTCC yielded a switch fluorescence ratio of 0.966.
Work on ATTTTATCAT yielded a switch fluorescence ratio of 1.02.
ATTTTCGAT showed a switch fluorescence ratio of 0.997.
ATTTTCTTGG was tested, and the switch fluorescence ratio was 0.994.
Work on ATTTTGGCGG yielded a switch fluorescence ratio of 1.06.
ATTTTGGGTA showed a switch fluorescence ratio of 0.988.
ATTTTTAGAT showed a switch fluorescence ratio of 0.961.
For ATTTTTGCCT, the switch fluorescence ratio was 1.01.
ATTTTTGGTA gave a switch fluorescence ratio of 1.02.
With ATTTTTGTAA the switch fluorescence ratio was 1.03.
ATTTTTTTGG showed a switch fluorescence ratio of 1.02.
With CAAAAAACCC the switch fluorescence ratio was 1.03.
CAAAAAAGGT gave a switch fluorescence ratio of 1.
CAAAAAGCTG gave a switch fluorescence ratio of 0.9.
For CAAAAAGGCC, the switch fluorescence ratio was 1.02.
With CAAAAGGA the switch fluorescence ratio was 0.98.
Work on CAAAAGGCGA yielded a switch fluorescence ratio of 0.998.
CAAAATCATG showed a switch fluorescence ratio of 1.02.
With CAAAATTGTA the switch fluorescence ratio was 1.03.
For CAAACCAAAC, the switch fluorescence ratio was 1.66.
With CAAACGATAC the switch fluorescence ratio was 2.37.
With CAAACGGTAT the switch fluorescence ratio was 1.04.
Work on CAAACGTCAT yielded a switch fluorescence ratio of 1.14.
CAAAGAGATA was tested, and the switch fluorescence ratio was 1.02.
For CAAAGAGTGC, the switch fluorescence ratio was 0.975.
In the case of CAAAGCATAA, the switch fluorescence ratio is reported as 1.49.
Sequence CAAAGCCCGT has a switch fluorescence ratio of 1.03.
For CAAAGCGGCC, the switch fluorescence ratio was 1.22.
With CAAAGCTTTT the switch fluorescence ratio was 1.03.
CAAAGGAACG showed a switch fluorescence ratio of 0.937.
For CAAAGGATGT, the switch fluorescence ratio was 1.02.
CAAAGGTCGA showed a switch fluorescence ratio of 0.948.
CAAAGTGCAG gave a switch fluorescence ratio of 1.01.
CAAATACAAT was tested, and the switch fluorescence ratio was 0.991.
CAAATACTGT gave a switch fluorescence ratio of 1.07.
CAAATAGCT showed a switch fluorescence ratio of 0.972.
With CAAATATCGG the switch fluorescence ratio was 0.99.
In the case of CAAATCGGTA, the switch fluorescence ratio is reported as 0.951.
In the case of CAAATGCCTT, the switch fluorescence ratio is reported as 1.08.
Work on CAAATGGGGA yielded a switch fluorescence ratio of 1.
Work on CAACAAATCA yielded a switch fluorescence ratio of 1.03.
Work on CAACACATGT yielded a switch fluorescence ratio of 1.02.
Sequence CAACAGATAT has a switch fluorescence ratio of 1.01.
CAACAGGAG showed a switch fluorescence ratio of 1.06.
Sequence CAACCACTTT has a switch fluorescence ratio of 1.1.
With CAACCATAGC the switch fluorescence ratio was 1.08.
In the case of CAACCGGCCG, the switch fluorescence ratio is reported as 1.01.
Sequence CAACCTGGGC has a switch fluorescence ratio of 1.07.
For CAACCTTATG, the switch fluorescence ratio was 1.
Work on CAACGAATGG yielded a switch fluorescence ratio of 1.05.
Sequence CAACGACCAG has a switch fluorescence ratio of 1.04.
Sequence CAACGATTG has a switch fluorescence ratio of 0.991.
CAACGGAGTG gave a switch fluorescence ratio of 0.988.
For CAACGGTTTA, the switch fluorescence ratio was 1.04.
In the case of CAACTGGCGT, the switch fluorescence ratio is reported as 1.03.
In the case of CAACTTTGT, the switch fluorescence ratio is reported as 0.974.
For CAAGAAGGTG, the switch fluorescence ratio was 1.38.
For CAAGAATTAG, the switch fluorescence ratio was 0.931.
Work on CAAGAATTTC yielded a switch fluorescence ratio of 0.999.
Work on CAAGATAGCA yielded a switch fluorescence ratio of 1.03.
In the case of CAAGATCG, the switch fluorescence ratio is reported as 0.991.
In the case of CAAGATGTGA, the switch fluorescence ratio is reported as 0.958.
CAAGCCAGG was tested, and the switch fluorescence ratio was 1.21.
CAAGCCGTT was tested, and the switch fluorescence ratio was 0.979.
With CAAGCGGGAG the switch fluorescence ratio was 0.997.
Sequence CAAGCGTTTT has a switch fluorescence ratio of 0.998.
Sequence CAAGCTACAA has a switch fluorescence ratio of 1.15.
CAAGGATGC was tested, and the switch fluorescence ratio was 0.995.
With CAAGGCCTTA the switch fluorescence ratio was 1.02.
Work on CAAGGGAAAC yielded a switch fluorescence ratio of 1.04.
CAAGGGGTAG was tested, and the switch fluorescence ratio was 0.973.
CAAGGGTCTC was tested, and the switch fluorescence ratio was 0.99.
CAAGGTGCCG showed a switch fluorescence ratio of 1.05.
In the case of CAAGTCGCG, the switch fluorescence ratio is reported as 0.967.
CAAGTCTTTC was tested, and the switch fluorescence ratio was 0.984.
With CAAGTGCCCG the switch fluorescence ratio was 0.958.
CAAGTTGCCT was tested, and the switch fluorescence ratio was 1.04.
With CAAGTTGT the switch fluorescence ratio was 1.02.
CAAGTTTCG showed a switch fluorescence ratio of 0.958.
In the case of CAAGTTTTCA, the switch fluorescence ratio is reported as 1.02.
CAATAACAAG showed a switch fluorescence ratio of 1.02.
CAATAAGAGT was tested, and the switch fluorescence ratio was 1.02.
Work on CAATAAGTTG yielded a switch fluorescence ratio of 1.09.
For CAATAATGCG, the switch fluorescence ratio was 1.02.
Work on CAATACCCGA yielded a switch fluorescence ratio of 1.05.
CAATAGGTAT showed a switch fluorescence ratio of 0.995.
CAATATAACC showed a switch fluorescence ratio of 0.962.
With CAATATGCT the switch fluorescence ratio was 1.01.
CAATATTAAT showed a switch fluorescence ratio of 1.03.
CAATCAACGA showed a switch fluorescence ratio of 1.01.
For CAATCACTA, the switch fluorescence ratio was 1.01.
CAATCCCTA showed a switch fluorescence ratio of 1.04.
CAATCTGTGC showed a switch fluorescence ratio of 0.938.
With CAATGAGAGT the switch fluorescence ratio was 0.999.
Sequence CAATGCCGGA has a switch fluorescence ratio of 1.04.
For CAATGCTCAA, the switch fluorescence ratio was 1.08.
CAATGCTCCA gave a switch fluorescence ratio of 2.35.
In the case of CAATGGCTGG, the switch fluorescence ratio is reported as 1.06.
In the case of CAATGGGCGG, the switch fluorescence ratio is reported as 1.02.
In the case of CAATGGTAGG, the switch fluorescence ratio is reported as 0.998.
Sequence CAATGTAAGT has a switch fluorescence ratio of 1.01.
For CAATGTCTG, the switch fluorescence ratio was 0.988.
CAATGTTGAA gave a switch fluorescence ratio of 1.04.
CAATTAGCCT showed a switch fluorescence ratio of 1.03.
In the case of CAATTCATT, the switch fluorescence ratio is reported as 0.981.
In the case of CAATTCCGTT, the switch fluorescence ratio is reported as 0.999.
CAATTCGTTT showed a switch fluorescence ratio of 0.934.
In the case of CAATTCTCGT, the switch fluorescence ratio is reported as 0.969.
CAATTCTTAA showed a switch fluorescence ratio of 0.986.
Sequence CAATTGATAA has a switch fluorescence ratio of 1.01.
With CAATTGGCTC the switch fluorescence ratio was 0.927.
With CAATTGTAG the switch fluorescence ratio was 0.987.
In the case of CAATTTGGTA, the switch fluorescence ratio is reported as 0.961.
For CACAAAGGA, the switch fluorescence ratio was 1.02.
CACAACACTA was tested, and the switch fluorescence ratio was 1.25.
In the case of CACAACTT, the switch fluorescence ratio is reported as 1.05.
For CACAAGAGGG, the switch fluorescence ratio was 1.02.
CACAAGCGTC gave a switch fluorescence ratio of 1.06.
Work on CACAATTATT yielded a switch fluorescence ratio of 1.02.
In the case of CACACAGCCT, the switch fluorescence ratio is reported as 1.16.
Sequence CACACATAAT has a switch fluorescence ratio of 1.02.
CACACTGTGA showed a switch fluorescence ratio of 1.02.
With CACAGAGCGG the switch fluorescence ratio was 0.994.
In the case of CACAGGCGGA, the switch fluorescence ratio is reported as 1.06.
CACAGGGCTT showed a switch fluorescence ratio of 0.986.
With CACAGGGGTG the switch fluorescence ratio was 1.23.
CACAGTGGGA gave a switch fluorescence ratio of 1.03.
Sequence CACAGTTGTC has a switch fluorescence ratio of 0.925.
CACATAGATT gave a switch fluorescence ratio of 0.956.
Sequence CACATAGTGT has a switch fluorescence ratio of 1.
CACATCCCCC showed a switch fluorescence ratio of 1.16.
Work on CACATGGGAC yielded a switch fluorescence ratio of 0.999.
CACATGGGTT gave a switch fluorescence ratio of 1.02.
CACCAACTA gave a switch fluorescence ratio of 1.19.
For CACCAATCCT, the switch fluorescence ratio was 1.06.
Sequence CACCACGGGT has a switch fluorescence ratio of 1.04.
CACCAGCTAA was tested, and the switch fluorescence ratio was 1.17.
CACCAGGTCG showed a switch fluorescence ratio of 2.01.
With CACCAGTTGA the switch fluorescence ratio was 1.12.
CACCATTAAA gave a switch fluorescence ratio of 1.03.
CACCCCCGCA was tested, and the switch fluorescence ratio was 2.05.
Work on CACCCCCTAG yielded a switch fluorescence ratio of 1.24.
Sequence CACCCGACT has a switch fluorescence ratio of 1.06.
For CACCCTCAGG, the switch fluorescence ratio was 1.45.
Work on CACCCTTTAC yielded a switch fluorescence ratio of 1.63.
CACCGAGTCA gave a switch fluorescence ratio of 1.02.
Sequence CACCGGATGG has a switch fluorescence ratio of 1.02.
For CACCGGGTAG, the switch fluorescence ratio was 1.18.
CACCGGGTCA was tested, and the switch fluorescence ratio was 1.03.
In the case of CACCGGTCAC, the switch fluorescence ratio is reported as 1.27.
CACCTACGAA showed a switch fluorescence ratio of 1.34.
Work on CACCTGAAAG yielded a switch fluorescence ratio of 1.02.
Sequence CACCTGGTTT has a switch fluorescence ratio of 1.04.
In the case of CACCTTCGGC, the switch fluorescence ratio is reported as 1.12.
With CACCTTCTCT the switch fluorescence ratio was 1.15.
Work on CACCTTTTAC yielded a switch fluorescence ratio of 1.16.
CACGAAGCCA was tested, and the switch fluorescence ratio was 1.32.
With CACGAATGAG the switch fluorescence ratio was 1.02.
